# Test results: PubChem BioAssay (NCATS)
# Several values for one entry are separate records, joined by “and”; a condition that tells them apart may be missing. Identical values can stand only once. Inconclusive means that the source gave no clear call. Such entries were picked first, then a sample of the others. Potencies of inconclusive entries are left out as doubtful fits. Activity calls are given as the source filed them. Calls come from the whole dose curve; as a rule, active = well fitted inhibition curve with a large enough effect; inconclusive = small, poorly fitted or top-dose-only effect; inactive = flat fitted curve, though single readings scatter.
# Assay: BET inhibitor-based combinations targeting novel dependencies in MECOM-rearranged (r) AML: AML-191 cell line (AID 2202236; note: nearly all actives have a fitted effect of over 35% in size)
# Details: AML-191 viability, CellTiter-Glo luminescence, 48 h; series mostly up to 46 µM
# Source text: Ecotropic viral insertion site 1 (EVI1) is located on chromosome 3q26.2 as part of the MECOM (MDS and EVI1 complex) locus. Under normal hematopoiesis, EVI1 is a regulator of hematopoietic stem cell maintenance and self-renewal and EVI1 levels decrease as the cells differentiate. In approximately 5-10% of de novo acute myeloid leukemia (AML) EVI1 is aberrantly expressed, including Chromosomal inv(3)(q21;q26.2) or t(3;3)(q21;q26.2) alterations (MECOM-r) that account for about 50% of AML with EVI1 overexpression 31. AMLs with high levels of EVI1 have a poor prognosis and an overall survival time averaging between 10-14 months. EVI1 overexpression confers resistance in leukemia cells, highlighting the need to develop new targeted therapies for EVI1 overexpressing AMLs.
# Here, we performed an unbiased chemical drug screening by evaluating the single agent activity of a collection of 2,480 oncology-focused, approved and investigational drugs (NCATS Mechanism Interrogation Plates, MIPE v5.0) against a panel of seven AML cell lines. These included four MECOM-r cell-lines (AML-191, AML-194, UCSD-AML1 and HNT-34) and three non-MECOM-r AMLs (MV4-11, OCI-AML3 and SET-2). Exploiting the mechanistic redundancy built in the library, we identified target-level sensitivities in MECOM-r AML cells and relative activity as compared to other AML subtypes.
# A collection of 2480 mechanistically annotated dugs (MIPE v5.0) was used to screen four 3q26.2 rearranged AML cell lines and three non-3q26.2 rearranged AML cell lines. This library purposely exploits redundancy by including multiple inhibitors of key onco-targets, while simultaneously encompassing mechanistic diversity, targeting more than 800 distinct mechanisms of action. Briefly, cells were seeded in 5 uL of growth media using a Multidrop Combi dispenser into 1536 well white polystyrene tissue culture treated plates (Corning) at a density of 500cells/well. For each cell-line, for each of the 2480 drugs in MIPE v5.0 library, an 11-point dose curve was generated via a 1536 pin-tool. Plates were incubated for 48 hr at standard incubator conditions, covered by a stainless steel gasketed lid to prevent evaporation. Cell viability was determined by luminescence based, Cell Titer Glo assay (Promega). In detail, 3 uL of Cell Titer Glo were added to each well and plates were incubated at room temperature for 15 min with a stainless-steel lid in place. Luminescence readings were taken using a Viewlux (PerkinElmer) with a 2 s exposure time per plate. Compound dose-response curves were normalized to DMSO and empty well controls on each plate. Quantitative drug activity data from dose-response curves was determined utilizing area Under the Curve (AUC) and Z-transformed AUC (Z-AUC, a mean-centering transformation applied to each individual cell-line screened).
# Potency is the fitted concentration of half-maximal effect; tags give direction and shape of the fitted curve.
row,Compound,Potency
1,COc1ccc(C(=O)C2CCN(CC(=O)N(Cc3nc4c(c(=O)[nH]3)COCC4)CC3CC3)CC2)cc1,"inconclusive [inhibitor, single point]"
2,CC(C)C(=O)OCC(=O)[C@@]12O[C@H](C3CCCCC3)O[C@@H]1C[C@H]1[C@@H]3CCC4=CC(=O)C=C[C@]4(C)[C@H]3[C@@H](O)C[C@@]12C,"inconclusive [inhibitor, partial curve]"
3,COc1ccc2cc([C@H](C)C(=O)O)ccc2c1,inactive
4,COC(=O)N[C@H](C(=O)N1CCC[C@H]1c1ncc(-c2ccc(-c3ccc(-c4cnc([C@@H]5CCCN5C(=O)[C@@H](NC(=O)OC)C(C)C)[nH]4)cc3)cc2)[nH]1)C(C)C,"inconclusive [inhibitor, single point]"
5,N#C/C(=C\c1ccc(O)c(O)c1)C(=O)NCc1ccccc1,"inconclusive [inhibitor, partial curve]"
6,CN1CCN(Cc2ccc(Nc3ncc(Cl)c(Nc4ccccc4S(=O)(=O)N(C)C)n3)cc2)CC1,active: 0.152 µM
7,COc1ccc(C(=O)N2CCN(c3ccc4c(c3)CCC(=O)N4)CC2)cc1OC,inactive
8,COC(=O)C1C2CC3c4[nH]c5cc(OC)ccc5c4CCN3CC2CC(OC(=O)c2cc(OC)c(OC)c(OC)c2)C1OC (stereo not given),"inconclusive [inhibitor, single point]"
9,CC(=O)N1CCC(Nc2cc(C(=O)NC[C@H](O)CN3CCc4ccccc4C3)ncn2)CC1,"inconclusive [inhibitor, partial curve, poor fit]"
10,COc1cc(S(C)(=O)=O)ccc1Nc1nc2ccc(-c3ccc(NC(=O)[C@H](C)c4ccc(F)cc4)cc3)cn2n1,"inconclusive [inhibitor, full curve]"
11,CCOC(=O)O[C@]1(C(=O)OCCl)CC[C@H]2[C@@H]3CCC4=CC(=O)C=C[C@]4(C)[C@H]3[C@@H](O)C[C@@]21C,"inconclusive [inhibitor, partial curve]"
12,Clc1ccc(-c2nc3sccn3c2/C=N/OCc2ccc(Cl)c(Cl)c2)cc1,inactive
13,CC[C@H]1OC(=O)[C@H](C)[C@@H](O[C@H]2C[C@@](C)(OC)[C@@H](O)[C@H](C)O2)[C@H](C)[C@@H](O[C@@H]2O[C@H](C)C[C@H](N(C)C)[C@H]2O)[C@](C)(O)C[C@@H](C)CN(C)[C@H](C)[C@@H](O)[C@]1(C)O,"inconclusive [inhibitor, partial curve, poor fit]"
14,CN(C(=O)CNC(=O)/C=C/c1cccc(Cl)c1)C1CCS(=O)(=O)CC1,"inconclusive [inhibitor, full curve]"
15,O=C(Nc1nc2ccccc2n1CCN1CCOCC1)c1cccc([N+](=O)[O-])c1,"inconclusive [inhibitor, full curve, poor fit]"
16,COc1cc(F)c(F)c(Nc2ccc(I)cc2F)c1NS(=O)(=O)C1(C[C@H](O)CO)CC1,"inconclusive [inhibitor, full curve]"
17,O=C(NCc1ccccc1)c1csc(Nc2ccncn2)n1,active: 18.6 µM
18,CC(C)N(CCCNC(=O)Nc1ccc(C(C)(C)C)cc1)C[C@H]1O[C@@H](n2cc(Br)c3c(N)ncnc32)[C@H](O)[C@@H]1O,"inconclusive [inhibitor, partial curve]"
19,O=S(=O)(Nc1ccc(-c2cccnc2)c2cccnc12)c1cccc(C(F)(F)F)c1,active: 5.9 µM
20,COc1cccc2c1C(=O)c1c(O)c3c(c(O)c1C2=O)C[C@@](O)(C(=O)CO)C[C@@H]3O[C@H]1C[C@H](N)[C@H](OC2CCCCO2)[C@H](C)O1 (stereo not given in full),active: 118 nM and active: 372 nM

row,Compound,Potency
1,Nc1nc2cc(-c3ccc4ncc(C(=O)N5CCOCC5)n4c3)ccc2o1,"inconclusive [inhibitor, partial curve]"
2,CS(=O)(=O)c1ccc(-c2nnc(/C=C/c3nnc(-c4ccc(C#N)cc4)o3)n2-c2ccccc2Cl)nc1,"inconclusive [inhibitor, partial curve, poor fit]"
3,O=C(O)c1cccnc1,inactive
4,CCCCCCCCCCCC1=C(O)C(=O)C=C(O)C1=O,"inconclusive [inhibitor, single point]"
5,CC(C)(CO)n1cc(C(=O)c2cncc(NC(=O)Cc3ccc(Cl)cn3)c2)c2cnc(N)nc21,"inconclusive [inhibitor, full curve]"
6,[O-][n+]1cccc(-c2nc3c(Cl)cccc3cc2[C@@H](Nc2ncnc3cccnc23)C(F)(F)F)c1,"inconclusive [inhibitor, partial curve]"
7,CCCCC(C)(C)[C@H](O)C=C[C@H]1[C@H](O)CC(=O)[C@H]1CC=CCCCC(=O)O,"inconclusive [inhibitor, partial curve, poor fit]"
8,CCC(=O)OCC(=O)C1(OC(=O)CC)C(C)CC2C3CCC4=CC(=O)C=CC4(C)C3(F)C(O)CC21C (stereo not given),inactive
9,CC[C@H](CC#N)OC(=O)N[C@@H](C)c1cccc(NC(=O)Nc2ccc(-c3cnco3)c(OC)c2)c1,"inconclusive [inhibitor, full curve]"
10,COc1ccccc1C(=O)Nc1cc2c(cc1N1CCNC[C@H]1C)n(C)c(=O)n2C,"inconclusive [inhibitor, single point]"
11,CN(C(=O)c1c(O)c2ccccc2n(C)c1=O)c1ccccc1,inactive
12,Cn1cc(C2=C(c3c4n(c5ccccc35)CCC(CN)C4)C(=O)NC2=O)c2ccccc21 (stereo not given),"inconclusive [inhibitor, partial curve, poor fit]"
13,CCN1CCN(Cc2ccc(-c3cc4c(N[C@H](C)c5ccccc5)ncnc4[nH]3)cc2)CC1,active: 18.6 µM
14,COc1cc(=C2C=c3ccccc3=N2)[nH]/c1=C/c1[nH]c(C)cc1C,active: 2.35 µM
15,Cc1nc2ccc(CN(C)c3ccc(C(=O)N[C@@H](CCC(=O)O)C(=O)O)s3)cc2c(=O)[nH]1,"inconclusive [inhibitor, full curve, poor fit]"
16,CC(=O)O[C@]1(C(C)=O)CC[C@H]2[C@@H]3C[C@H](C)C4=CC(=O)CC[C@]4(C)[C@H]3CC[C@@]21C,active: 9.34 µM
17,Cc1cc(O)cc2c1[C@]1(C)CC[C@H]3C(C)(C)CCC[C@]3(C)[C@H]1C2,inconclusive [inhibitor]
18,FC(F)c1nc2ccccc2n1-c1nc(N2CCOCC2)nc(N2CCOCC2)n1,"inconclusive [inhibitor, full curve]"
19,C[C@H](NC(=O)[C@H]1NCC[C@@H]1O)c1ccc(-c2noc(CCC3CCCC3)n2)cc1,active: 20.9 µM
20,CCc1cc(/C(C)=N/OCc2ccc(C3CCCCC3)c(C(F)(F)F)c2)ccc1CN1CC(C(=O)O)C1,"inconclusive [inhibitor, single point]"
